From PMC4336329 (PLoS ONE, 2015) come the findings set out here.

Structures are written as SMILES. Hit rate of the full screen: of about 310,000 compounds, about 14,000 (4.5%) showed an effect of 50% or more. Effects have a minus sign here. The list shows a part of the results.
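Further: peak tail current of the secondary pulse compared with the same well before compound.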

For this assay, the target named is human ether-à-go-go-related gene (hERG) potassium channel (human, UniProt Q12809). The experiment in a line: primary screen, population patch clamp on CHO cells stably expressing hERG.
Sequence of human ether-à-go-go-related gene (hERG) potassium channel (Q12809 whole entry, looked up): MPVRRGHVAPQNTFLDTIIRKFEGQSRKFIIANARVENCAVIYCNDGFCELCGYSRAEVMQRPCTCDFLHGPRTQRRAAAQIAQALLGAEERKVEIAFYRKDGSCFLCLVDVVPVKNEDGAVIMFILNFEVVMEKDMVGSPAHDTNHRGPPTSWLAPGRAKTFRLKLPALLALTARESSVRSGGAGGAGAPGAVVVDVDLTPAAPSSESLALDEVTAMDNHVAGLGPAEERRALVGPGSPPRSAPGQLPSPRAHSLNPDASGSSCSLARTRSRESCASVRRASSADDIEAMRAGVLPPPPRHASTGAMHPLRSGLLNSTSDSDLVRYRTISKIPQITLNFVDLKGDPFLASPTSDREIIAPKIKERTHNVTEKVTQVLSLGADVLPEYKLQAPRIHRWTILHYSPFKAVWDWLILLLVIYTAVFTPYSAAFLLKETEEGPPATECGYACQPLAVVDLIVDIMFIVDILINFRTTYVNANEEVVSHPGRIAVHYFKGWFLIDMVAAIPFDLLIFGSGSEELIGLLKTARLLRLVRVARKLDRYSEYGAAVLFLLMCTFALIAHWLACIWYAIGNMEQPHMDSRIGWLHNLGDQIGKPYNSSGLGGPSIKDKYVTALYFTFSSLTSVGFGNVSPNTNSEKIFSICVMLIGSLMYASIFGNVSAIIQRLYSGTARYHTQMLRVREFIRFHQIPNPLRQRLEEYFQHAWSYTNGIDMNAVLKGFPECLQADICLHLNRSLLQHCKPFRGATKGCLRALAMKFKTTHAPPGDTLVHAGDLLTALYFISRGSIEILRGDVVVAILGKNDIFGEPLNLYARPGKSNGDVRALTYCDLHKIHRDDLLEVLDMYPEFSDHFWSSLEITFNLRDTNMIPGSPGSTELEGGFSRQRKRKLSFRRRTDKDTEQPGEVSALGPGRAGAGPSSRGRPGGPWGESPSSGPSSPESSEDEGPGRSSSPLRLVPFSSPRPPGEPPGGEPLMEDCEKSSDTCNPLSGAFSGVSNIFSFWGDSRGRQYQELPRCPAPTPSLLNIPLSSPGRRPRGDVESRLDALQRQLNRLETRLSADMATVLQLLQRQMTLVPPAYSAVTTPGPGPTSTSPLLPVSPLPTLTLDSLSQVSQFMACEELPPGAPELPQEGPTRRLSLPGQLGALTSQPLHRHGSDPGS
As for `COc1ccc(NC(=O)c2cnc3n(c2=O)CCS3)cc1OC`, the “hERG current change (%, negative = inhibition) at 10uM” value was determined as 13.4%.
As for `N#Cc1sc2nc3c(cc2c1N)CCCC3`, the figure is -6.61%.
As for `COc1ccc(CN2CCOCC2)c(C)c1C`, the figure is -9.9%.
With `COCCNc1nnc(SCC(=O)NNC(=O)c2ccco2)s1` the figure was -0.674%; with `COc1ccc(-n2c(=S)[nH]c3cc(C(=O)N(C)Cc4ccccc4)ccc3c2=O)cc1`, 8.39%; with `O=C1N/C(=C\c2ccccc2)c2ccccc21`, 4%.
With `C=CC[C@]12CC=CC(=O)[C@@]1(O)O[C@H](c1ccc(OC)c(OC)c1)[C@H]2C`, the “hERG current change (%, negative = inhibition) at 10uM” value was found to be 11.9%.
With `CC(C)(C)N(NC(=O)Nc1ccccc1)C(=O)c1ccccc1Cl` the figure was 17%; with `Cc1ccc(C)c(S(=O)(=O)N2CCN(C(=O)c3cncc(Br)c3)CC2)c1`, -20.3%; with `COc1ccc(C2C(Oc3ccccc3)C(=O)N2c2ccc(C)c(C)c2)cc1OC` (stereo not shown), 0.00408%.
Take `CC(=O)c1ccc(NS(=O)(=O)c2ccc(N/C=C/C(=O)c3ccc(F)cc3)cc2)cc1`: the “hERG current change (%, negative = inhibition) at 10uM” value was 15.1%.
With `CC(=O)Oc1ccc(C(=O)Nc2cccc(C(=O)c3cccc(NC(=O)c4ccc(OC(C)=O)cc4)c3)c2)cc1` the figure was 3.32%; with `CCC(CO)NC(=O)C1C=C2c3cccc4[nH]cc(c34)CC2N(C)C1` (stereo not shown), 23.7%; with `COCCN(C(C)=O)c1nnc(-c2ccccn2)s1`, 13.2%.
With `Cc1nc(SCC(=O)NCC2CCCO2)c2oc3ccccc3c2n1` (stereo not shown) the figure was -3.09%.
As for `Cc1sc2c(c1C)CN(C1CC(C)(C)NC(C)(C)C1)CN2C(=O)c1ccco1`, the figure is -32.8%; as for `Cc1ccc(C(=O)Nc2nnc(Cc3ccccc3)s2)cc1`, 9.35%; as for `C=C(C)C(=O)OCC(=O)NCc1ccccc1`, 24.6%.
For the compound `COc1ccc(NC(=O)CCn2cccc2)c(OC)c1`, the “hERG current change (%, negative = inhibition) at 10uM” value is listed as 11.8%.
`CNC(=S)NNC(=O)c1ccc(=O)n(Cc2ccc(Cl)cc2Cl)c1`: the “hERG current change (%, negative = inhibition) at 10uM” value turned out to be 47.8%.
As for `O=C(O)c1cccc(COc2ccc3c(c2)CCC3)c1`, the figure is 18.3%; as for `Cc1ccc(F)c([C@H]2[C@@H]3C=CCC[C@@]3(C)C(=O)N2Cc2ccccc2)c1`, 8.02%.
Regarding `COc1ccccc1CC(=O)Nc1cc(OC)c(NC(=O)c2ccccc2)cc1OC`, the “hERG current change (%, negative = inhibition) at 10uM” value came out at 7.91%.
With `CCCn1c(N)cc(=O)n(CCC)c1=O` the figure was 24%.
As for `CCOc1cccc2sc(Nc3nc4ccc(NC(C)=O)cc4s3)nc12`, the figure is 5.63%.
As for `O=C(c1ccc(N2C(=O)C3CC=C(Cl)CC3C2=O)cc1)N1CCCCC1` (stereo not shown), the figure is 11.9%; as for `O=S(=O)(c1ccc(Cl)cc1)c1snnc1-c1ccccc1`, -3.38%.
On to `COC(=O)CSc1nc(Cc2ccccc2)nc2ccccc12`, for which the “hERG current change (%, negative = inhibition) at 10uM” value is -26%.
As for `CSc1n[nH]c(NCc2cccs2)n1`, the “hERG current change (%, negative = inhibition) at 10uM” value came to 8.8%.
With `Cc1ccc(S(=O)(=O)NCCOC(=O)Nc2sc(=S)n(C)c2C)cc1` the figure was 0.465%; with `CN(/N=C/c1ccccc1Cl)c1ncc(Cl)cc1C(F)(F)F`, 7.79%; with `CCC(=O)NC(NC(=S)Nc1ccc(S(N)(=O)=O)cc1)C(Cl)(Cl)Cl` (stereo not shown), -1.3%.
For the compound `C=CCOC(=O)C1=C[C@H](c2ccc(Br)cc2)C[C@H](OCc2ccc(CO)cc2)O1`, the “hERG current change (%, negative = inhibition) at 10uM” value is -15.6%.
With `CN(C)CCN(Cc1ccccc1)S(=O)(=O)c1ccc(-c2ccc(=O)[nH]n2)s1` the figure was -67.4%.
As for `Nc1nnc(SCc2ccccc2Cl)s1`, the figure is 2.17%; as for `CC(=O)Nc1ccc(/C=C(\C#N)C(N)=O)cc1`, 12.5%; as for `COc1cccc(N(C(=O)Cn2nnc(-c3ccc(C)cc3)n2)C(C(=O)NC(C)(C)C)c2c[nH]c3ccccc23)c1` (stereo not shown), 11.4%.
With `O=C(c1ccc(NS(=O)(=O)c2ccccc2)cc1)N1CCOCC1` the figure was 21%; with `CC(=O)NS(=O)(=O)c1ccc(NC(=O)c2cccc3ccccc23)cc1`, 20.1%; with `S=C(Nc1ccc(N2CCOCC2)cc1)Nc1ccc2snnc2c1`, -5.04%.
For the compound `O=C(COc1ccc(Br)cc1)Nc1ccc(C(=O)Nc2ccccc2C(=O)O)cc1`, the “hERG current change (%, negative = inhibition) at 10uM” value is given as -4.9%.
With `CCC(=O)NCCc1nc2cc(NC(=O)c3ccc(F)cc3)ccc2n1C` the figure was 1.29%; with `CCN(CC)CCN(C(=O)c1ccc2c(c1)CCCC2)c1nc2c(C)cccc2s1.Cl`, -30.2%.
